Measurements taken from the supplement of paper PMC8728848.
The list shows a part of the results.

How the values were obtained:
Assay in all cases: glycan array binding signal (z-score within array); higher = stronger binding
Settings in all cases: glycan notation: IUPAC condensed, linker removed
[1] = molecular target: Fuc(a1-2)[GalNAc(a1-3)]Gal(b1-3)GlcNAc(b1-6)GalNAc
Outline: (§1)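 The Consortium for Functional Glycomics database supplied 3228 glycan arrays, of which those lacking an available protein sequence were dropped. The binding signal, a within-array Z-score, was averaged across arrays of the same protein sequence and across linkers. Negative scores can be read as non-binding.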

[2] = molecular target: Fuc(a1-2)[GalNAc(a1-3)]Gal(b1-4)Glc
Outline: as §1

[3] = molecular target: Fuc(a1-2)[GalNAc(a1-3)]Gal(b1-4)GlcNAc
Outline: as §1

[4] = molecular target: Fuc(a1-2)[GalNAc(a1-3)]Gal(b1-4)GlcNAc(b1-2)Man
Outline: as §1

[5] = molecular target: Fuc(a1-2)[GalNAc(a1-3)]Gal(b1-4)GlcNAc(b1-2)Man(a1-3)[Fuc(a1-2)[GalNAc(a1-3)]Gal(b1-4)GlcNAc(b1-2)Man(a1-6)]Man(b1-4)GlcNAc(b1-4)GlcNAc
Outline: as §1

[6] = molecular target: Fuc(a1-2)[GalNAc(a1-3)]Gal(b1-4)GlcNAc(b1-2)Man(a1-3)[Fuc(a1-2)[GalNAc(a1-3)]Gal(b1-4)GlcNAc(b1-2)Man(a1-6)]Man(b1-4)GlcNAc(b1-4)[Fuc(a1-6)]GlcNAc
Outline: as §1

[7] = molecular target: Fuc(a1-2)[GalNAc(a1-3)]Gal(b1-4)GlcNAc(b1-3)Gal(b1-4)GlcNAc
Outline: as §1

[8] = molecular target: Fuc(a1-2)[GalNAc(a1-3)]Gal(b1-4)GlcNAc(b1-3)Gal(b1-4)GlcNAc(b1-3)Gal(b1-4)GlcNAc
Outline: as §1

[9] = molecular target: Fuc(a1-2)[GalNAc(a1-3)]Gal(b1-4)GlcNAc(b1-3)GalNAc
Outline: as §1

[10] = molecular target: Fuc(a1-2)[GalNAc(a1-3)]Gal(b1-4)GlcNAc(b1-3)[Fuc(a1-2)[GalNAc(a1-3)]Gal(b1-4)GlcNAc(b1-6)]GalNAc
Outline: as §1

[11] = molecular target: Fuc(a1-2)[GalNAc(a1-3)]Gal(b1-4)GlcNAc(b1-6)GalNAc
Outline: as §1

[12] = molecular target: Fuc(a1-2)[GalNAc(a1-3)]Gal(b1-4)[Fuc(a1-3)]GlcNAc
Outline: as §1

[13] = molecular target: Fuc(a1-2)[GalNAc(a1-3)]Gal(b1-4)[Fuc(a1-3)]GlcNAc(b1-3)GalNAc
Outline: as §1

[14] = molecular target: Fuc(a1-2)[GalNAc(a1-4)]Gal(b1-4)GlcNAc
Outline: as §1

[15] = molecular target: Fuc(a1-2)[GalNAc(b1-3)]Gal
Outline: as §1

Fuc(a1-3)GlcNAc = molecular target: Fuc(a1-3)GlcNAc
Outline: as §1

[16] = molecular target: Fuc(a1-3)[Gal(b1-4)]Glc6S
Outline: as §1

[17] = molecular target: Fuc(a1-3)[Gal(b1-4)]GlcNAc
Outline: as §1

[18] = molecular target: Fuc(a1-3)[Gal(b1-4)]GlcNAc(b1-2)Man
Outline: as §1

[19] = molecular target: Fuc(a1-3)[Gal(b1-4)]GlcNAc(b1-2)Man(a1-3)[Fuc(a1-3)[Gal(b1-4)]GlcNAc(b1-2)Man(a1-6)]Man(b1-4)GlcNAc(b1-4)GlcNAc
Outline: as §1

[20] = molecular target: Fuc(a1-3)[Gal(b1-4)]GlcNAc(b1-2)Man(a1-3)[Fuc(a1-3)[Gal(b1-4)]GlcNAc(b1-2)Man(a1-6)]Man(b1-4)GlcNAc(b1-4)[Fuc(a1-6)]GlcNAc
Outline: as §1

[21] = molecular target: Fuc(a1-3)[Gal(b1-4)]GlcNAc(b1-3)Gal(b1-3)[Fuc(a1-4)]GlcNAc
Outline: as §1

[22] = molecular target: Fuc(a1-3)[Gal(b1-4)]GlcNAc(b1-3)Gal(b1-4)[Fuc(a1-3)]GlcNAc
Outline: as §1

[23] = molecular target: Fuc(a1-3)[Gal(b1-4)]GlcNAc(b1-3)Gal(b1-4)[Fuc(a1-3)]GlcNAc(b1-3)Gal(b1-4)[Fuc(a1-3)]GlcNAc
Outline: as §1

[24] = molecular target: Fuc(a1-3)[Gal(b1-4)]GlcNAc(b1-3)GalNAc
Outline: as §1

[25] = molecular target: Fuc(a1-3)[Gal(b1-4)]GlcNAc(b1-6)GalNAc
Outline: as §1

[26] = molecular target: Fuc(a1-3)[Gal(b1-4)]GlcNAc(b1-6)[Gal(b1-3)GlcNAc(b1-3)]Gal(b1-4)Glc
Outline: as §1

[27] = molecular target: Fuc(a1-3)[Gal(b1-4)]GlcNAc6S
Outline: as §1

[28] = molecular target: Fuc(a1-3)[Gal3S(b1-4)]Glc
Outline: as §1

[29] = molecular target: Fuc(a1-3)[Gal3S(b1-4)]GlcNAc
Outline: as §1

[30] = molecular target: Fuc(a1-3)[Gal3S(b1-4)]GlcNAc6S
Outline: as §1

[31] = molecular target: Fuc(a1-3)[GalNAc(b1-4)]GlcNAc
Outline: as §1

[32] = molecular target: Fuc(a1-3)[GalNAc(b1-4)]GlcNAc6S
Outline: as §1

Fuc(a1-4)GlcNAc = molecular target: Fuc(a1-4)GlcNAc
Outline: as §1

Fuc(b1-3)GlcNAc = molecular target: Fuc(b1-3)GlcNAc
Outline: as §1

Gal(a1-2)Gal = molecular target: Gal(a1-2)Gal
Outline: as §1

Gal(a1-3)Gal = molecular target: Gal(a1-3)Gal
Outline: as §1

B1: PX9961V-pdi-562-26-562 (Parabacteroides distasonis) (protein)
chain: EIFSEITTDNYYQNSNNIYAALVNNYAKAFSTGWSDARYFLQEVTADQLMIPTRGKHGYNGGEYVRLHEHKWTVEENFVYNGWAAPFQGIALCNNTLSDFENLDFSTFKLTEETKNEYIAELRALRVWNYMFLIDFFRHVPIVTDIEEVKAQSTPLEVFNFMESELLAILPDLPKNRGVSRFDQAGVASILVRLYLNAEKWIGISKYDECEQMAQAILDGKYGEYSIDPDYRGPFRSGINGYRSKENIMEFAIKKNYFEASWLYNMWMHYQDRYSLDNDWQGWNGGNLAPSRDLYGNLYQDKLGMPFEKFPDGDIRKKAFRVISNDGDYEGFFLMGTQYKFDYEKGYGFTDEVITGTEEYNGKPLVYVDQVGRFSEGETGLAKGSHVIYGEENTGYRLIKFPWLPQSKDLFQMNSIPEIRLAEIYYSLAECKYRSGDKIGAARLLDVVRKRYYKAEDWSKFSYESNISKLTDDEFVDELGREFIGERHRRIDLIRWNRFSEGAWWDKTPDATNQDVFPIPYRALNANPLLKQTTAGF
glycan array binding signal (z-score) [1]: -0.636 | glycan array binding signal (z-score) [2]: -0.242 | glycan array binding signal (z-score) [3]: -0.528 | glycan array binding signal (z-score) [4]: -0.6 | glycan array binding signal (z-score) [5]: 4.28 | glycan array binding signal (z-score) [6]: -0.164 | glycan array binding signal (z-score) [7]: -0.014 | glycan array binding signal (z-score) [8]: -0.139 | glycan array binding signal (z-score) [9]: -0.613 | glycan array binding signal (z-score) [10]: -0.405 | glycan array binding signal (z-score) [11]: -0.592 | glycan array binding signal (z-score) [12]: -0.369 | glycan array binding signal (z-score) [13]: 7.22 | glycan array binding signal (z-score) [14]: 2.97 | glycan array binding signal (z-score) [15]: -0.308 | glycan array binding signal (z-score) (Fuc(a1-3)GlcNAc): -0.508 | glycan array binding signal (z-score) [16]: 0.472 | glycan array binding signal (z-score) [17]: -0.465 | glycan array binding signal (z-score) [18]: -0.333 | glycan array binding signal (z-score) [19]: 0.569 | glycan array binding signal (z-score) [20]: 1.49 | glycan array binding signal (z-score) [21]: -0.435 | glycan array binding signal (z-score) [22]: 0.082 | glycan array binding signal (z-score) [23]: -0.325 | glycan array binding signal (z-score) [24]: 0.334 | glycan array binding signal (z-score) [25]: -0.657 | glycan array binding signal (z-score) [26]: -0.227 | glycan array binding signal (z-score) [27]: 0.861 | glycan array binding signal (z-score) [28]: -0.74 | glycan array binding signal (z-score) [29]: -0.427 | glycan array binding signal (z-score) [30]: -0.418 | glycan array binding signal (z-score) [31]: -0.613 | glycan array binding signal (z-score) [32]: -0.368 | glycan array binding signal (z-score) (Fuc(a1-4)GlcNAc): -0.596 | glycan array binding signal (z-score) (Fuc(b1-3)GlcNAc): -0.328 | glycan array binding signal (z-score) (Gal(a1-2)Gal): -0.474 | glycan array binding signal (z-score) (Gal(a1-3)Gal): 0
